Drawing on PMC10668032, this text covers binding signal for 172 sequences.

The other results are listed elsewhere or left out. At the low end of the ranking, values are background and their order means little.

This assay addresses SIX1-Q177R homeodomain (UniProt Q15475). In words: universal protein binding microarray. To be noted: Universal all-10-mer PBM (8x60K, AMADID 030236), 300 nM GST-tagged protein, Alexa Fluor 488 anti-GST; buffer, salt, pH and temperature not stated; high values mean tight binding; most listed sequences are background and not binding sites; double strand, one strand shown.
Take ATGGTGTC: the binding signal stood at 0.486 E-score.

For the sequence AGCTTACT, the binding signal was -0.113 E-score.

In the case of CTATGTAC, the binding signal stood at 0.0488 E-score.

As to AATTCGCG, the binding signal is 0.0887 E-score.

Consider CCTTCGAG, for which the binding signal is -0.159 E-score.

Consider CCGTATAC, for which the binding signal turned out to be 0.0376 E-score.

On to ACGGCAAA, for which the binding signal is -0.00572 E-score.

ACAAGTGC: the binding signal was -0.016 E-score.

For the sequence AGTATCAC, the binding signal was 0.145 E-score.

Turning to CCATTTAA, the binding signal was -0.155 E-score.

Take ATCTCTAG: the binding signal is -0.18 E-score.

On to GAACTGCA, for which the binding signal is -0.0936 E-score.

Take AACGGTAC: the binding signal was -0.178 E-score.

With AATGGAAC, the binding signal is -0.0894 E-score.

For CCTCGTGC, the binding signal was found to be 0.0348 E-score.

AATTCCAC: the binding signal is -0.0712 E-score.

As to ATCAAAAG, the binding signal is -0.145 E-score.

In the case of CGCCTAGA, the binding signal is -0.118 E-score.

For the sequence ACTTCACG, the binding signal was -0.0262 E-score.

Turning to GGGTGTAC, the binding signal is 0.483 E-score.

CCGTGATA: the binding signal was -0.0805 E-score.

Regarding CTAAATTA, the binding signal is -0.281 E-score.

As to ACGCCTGC, the binding signal came out at 0.0131 E-score.

On to GTCACCAC, for which the binding signal is -0.0577 E-score.

Turning to AGAGGCCG, the binding signal was -0.0544 E-score.

Turning to GAGCGACA, the binding signal stood at 0.185 E-score.

As for ACCAGTGA, the binding signal came to 0.189 E-score.

With CCCCCCAA, the binding signal was determined as 0.146 E-score.

AGTTGATG: the binding signal is -0.075 E-score.

Turning to CTCGGCTA, the binding signal was -0.0973 E-score.

As to ATGAAAGA, the binding signal is -0.128 E-score.

In the case of AGAGAACC, the binding signal is -0.0421 E-score.

In the case of AATGTTAA, the binding signal was -0.0403 E-score.

AGGTTACG: the binding signal was -0.248 E-score.

Regarding ACCAAGTA, the binding signal worked out at 0.149 E-score.

Regarding CCCCTAGA, the binding signal was 0.0523 E-score.

With ATCGCTAC, the binding signal came to 0.0339 E-score.

CCCTTGCA: the binding signal is -0.1 E-score.

Take CCTTTAAA: the binding signal is -0.122 E-score.

GCTTTGCA: the binding signal is -0.0747 E-score.

On to CACGTTAG, for which the binding signal amounted to 0.102 E-score.

For the sequence ATTCGAAA, the binding signal was -0.286 E-score.

As to CCTGGTAA, the binding signal turned out to be 0.0114 E-score.

Regarding CGCGAACC, the binding signal was determined as 0.0874 E-score.

Turning to GCGATTGA, the binding signal is -0.13 E-score.

For the sequence CCTGATTA, the binding signal was -0.0132 E-score.

As for AAATATCC, the binding signal is -0.00366 E-score.

Take ACACCAGG: the binding signal is 0.472 E-score.

For the sequence AGCCGTAC, the binding signal was -0.12 E-score.

On to AGAGGGAG, for which the binding signal is -0.0887 E-score.

In the case of AGCACACG, the binding signal came out at 0.257 E-score.

Regarding ATTAGTTG, the binding signal was -0.0561 E-score.

As for CCCAAAGG, the binding signal was -0.00969 E-score.

Regarding ACTGCTTC, the binding signal was -0.131 E-score.

On to GGAGCATA, for which the binding signal was 0.115 E-score.

Consider AGGCCGAC, for which the binding signal is -0.108 E-score.

For the sequence AAATTTGC, the binding signal is -0.271 E-score.

As for CTCTTTGA, the binding signal was -0.153 E-score.

On to AACGTGTG, for which the binding signal amounted to 0.154 E-score.

As to GTTTGCCA, the binding signal is -0.113 E-score.

For ACCCTTTC, the binding signal was determined as 0.194 E-score.

For the sequence TCCATCAA, the binding signal was 0.193 E-score.

For the sequence CTAATCAC, the binding signal was -0.0283 E-score.

As to CGGCGCGA, the binding signal was determined as 0.0696 E-score.

As to CGCCGATC, the binding signal is 0.138 E-score.

Turning to AAGCTATT, the binding signal was -0.296 E-score.

As to CATATAGA, the binding signal was -0.00326 E-score.

For the sequence CGAAAAGC, the binding signal is -0.054 E-score.

For the sequence AGACAACC, the binding signal came out at 0.0645 E-score.

Consider AAGGGCGG, for which the binding signal worked out at 0.00511 E-score.

As to CTTGTGGA, the binding signal was -0.00257 E-score.

For the sequence GAATCGGC, the binding signal is -0.12 E-score.

With CGACGTCC, the binding signal is -0.214 E-score.

On to CCCATAAC, for which the binding signal is 0.0724 E-score.

Regarding AGTAGATC, the binding signal came to 0.0583 E-score.

ACAACGTC: the binding signal is -0.176 E-score.

In the case of AGCCATTA, the binding signal was -0.136 E-score.

Consider AGACAGAC, for which the binding signal is -0.059 E-score.

With ATTGGATA, the binding signal turned out to be 0.123 E-score.

For the sequence ACGAATAG, the binding signal is -0.0586 E-score.

Consider GAAGTGTC, for which the binding signal was determined as 0.387 E-score.

For the sequence AAGCCCTC, the binding signal is -0.144 E-score.

Regarding AAGGGTCA, the binding signal stood at 0.0935 E-score.

With AGAGTCAA, the binding signal was 0.0608 E-score.

Turning to AACCACTA, the binding signal is -0.0959 E-score.

In the case of ATTGCGTG, the binding signal was 0.183 E-score.

For the sequence CTGAGGAA, the binding signal is -0.26 E-score.

On to ATCAAAGC, for which the binding signal is -0.0517 E-score.

As for AAGGCCAA, the binding signal was -0.215 E-score.

CGCTTAGA: the binding signal was -0.102 E-score.

As for GGATTCCA, the binding signal is 0.0636 E-score.

Consider TGCTTACA, for which the binding signal was determined as 0.171 E-score.

As to GCAACACC, the binding signal was determined as 0.467 E-score.

On to GTGCCTTA, for which the binding signal was -0.0626 E-score.

On to AGATGGAT, for which the binding signal was -0.0602 E-score.

Turning to CTCCACGA, the binding signal was -0.162 E-score.

Turning to GCACAGAA, the binding signal is -0.0466 E-score.

As for GGCTGCCA, the binding signal is -0.0727 E-score.

For the sequence CTGTGGGC, the binding signal is -0.193 E-score.

With AAAGGCAC, the binding signal is -0.135 E-score.

For AGTGTTTC, the binding signal stood at 0.299 E-score.

As to AAAACTAT, the binding signal is -0.0949 E-score.

For ATAAGTTA, the binding signal was -0.112 E-score.

For CCGACGTA, the binding signal is 0.044 E-score.

Regarding GACGGAAC, the binding signal was -0.0301 E-score.

As for GAGGTGGA, the binding signal was -0.144 E-score.

Turning to AGGTCCTC, the binding signal is -0.205 E-score.

CCTAACCC: the binding signal turned out to be 0.0947 E-score.

Turning to ATACTTCA, the binding signal was -0.177 E-score.

Turning to AGGGCACC, the binding signal was 0.00999 E-score.

AAGCGACA: the binding signal came out at 0.229 E-score.

With ACGGCAGC, the binding signal was -0.0508 E-score.

On to CTGCATAC, for which the binding signal was 0.0404 E-score.

For the sequence CAGGCGTA, the binding signal was -0.0263 E-score.

Consider GCTGTTAA, for which the binding signal is -0.291 E-score.

As for AATAAAGC, the binding signal is -0.243 E-score.

Consider CAGTAGTC, for which the binding signal was -0.0632 E-score.

Take ACCGAACA: the binding signal worked out at 0.196 E-score.

In the case of GGTTGCAC, the binding signal was 0.183 E-score.

In the case of CTCAGATC, the binding signal is -0.0696 E-score.

Regarding AACATGCC, the binding signal was -0.181 E-score.

With ATCAACAT, the binding signal is -0.126 E-score.

With CTATATCA, the binding signal was found to be 0.00291 E-score.

Regarding ACTGACTG, the binding signal is -0.0697 E-score.

For CAGTGACG, the binding signal is -0.0921 E-score.

On to CAGCAGAC, for which the binding signal was -0.101 E-score.

As to GGTGCACA, the binding signal is 0.268 E-score.

Turning to GTCGATAA, the binding signal was -0.0907 E-score.

Turning to GCGCCGCC, the binding signal is -0.0111 E-score.

As for ACGCCACG, the binding signal stood at 0.171 E-score.

As for ACTCCACG, the binding signal came to 0.0447 E-score.

Consider AAATGTGT, for which the binding signal was determined as 0.122 E-score.

Consider GTTGATGA, for which the binding signal is -0.163 E-score.

CTAGTTTA: the binding signal was -0.193 E-score.

Take AGGAACAT: the binding signal was -0.141 E-score.

With GCCTCAAC, the binding signal was -0.107 E-score.

GAAACTGA: the binding signal was -0.0308 E-score.

In the case of CGGGTTTC, the binding signal stood at 0.101 E-score.

For the sequence ACCTACCA, the binding signal came out at 0.0412 E-score.

Regarding ACAGGCCC, the binding signal is -0.113 E-score.

For ACGGACAA, the binding signal was -0.0562 E-score.

In the case of CGCAACTC, the binding signal was found to be 0.0168 E-score.

Turning to GCCTGTAC, the binding signal is -0.0512 E-score.

For AAGTACCG, the binding signal is -0.125 E-score.

Take CAGAACGC: the binding signal was -0.153 E-score.

Take CGGCGAAC: the binding signal is -0.0735 E-score.

With GACTCGGA, the binding signal was determined as 0.119 E-score.

Take CGACCGAG: the binding signal was -0.151 E-score.

For CAAGCTAG, the binding signal was -0.164 E-score.

With ACTACGTG, the binding signal was 0.21 E-score.

Turning to ATGATGGC, the binding signal is -0.195 E-score.

Turning to AAGTAAAT, the binding signal was -0.0782 E-score.

On to ATAGCATG, for which the binding signal is -0.287 E-score.

As for TCCCGAGA, the binding signal is -0.0243 E-score.

Take AGCGCCCG: the binding signal was -0.113 E-score.

In the case of AGACCCTG, the binding signal is -0.0173 E-score.

As to ACTCGGGA, the binding signal stood at 0.0555 E-score.

Take AAGCGGTC: the binding signal was -0.0594 E-score.

On to CCGTTGTC, for which the binding signal was -0.174 E-score.

As to ACGGGCTA, the binding signal came to 0.055 E-score.

On to ACGTTCTG, for which the binding signal is -0.21 E-score.

Regarding GCTCCGCC, the binding signal is -0.165 E-score.

On to AGTCGACG, for which the binding signal turned out to be 0.0329 E-score.

CGGCATGA: the binding signal is -0.0159 E-score.

With GCCTGTCA, the binding signal is -0.0986 E-score.

On to CTTGACTC, for which the binding signal amounted to 0.125 E-score.

As to CGTCGTCA, the binding signal is -0.131 E-score.

Regarding CACTTGGC, the binding signal turned out to be 0.0343 E-score.

Consider AATTCAAA, for which the binding signal was -0.242 E-score.

As to CATGTAAC, the binding signal was 0.119 E-score.

Turning to ACTCACGA, the binding signal is -0.0313 E-score.

For GGTGTAGA, the binding signal came out at 0.473 E-score.
